Among all 45,000 compounds or so, about 65 (0.1%) were called active. Calls come from the whole dose curve; as a rule, active = well fitted activation curve with a large enough effect; inconclusive = small, poorly fitted or top-dose-only effect; inactive = no such curve, though single readings can be large or run the other way. The list shows a part of the results. Numbered stars: 1 amine (or outer) side, 2 acyl side, 3 side chain; on linkers, the order of the positions; unused ones are H or OH. Bridge positions count the residues as written; N and C are the ends. Square brackets hold non-standard residues; d marks the D form. Peptide text beside a SMILES is read from it. I, II: the chains in the order shown. Actinocin(9to1) = Cc1c2oc3c(C)ccc(C(=O)[*:1])c3nc-2c(C(=O)[*:2])c(N)c1=O; NMeV = CN[C@H](C(=O)O)C(C)C; Sar = CNCC(=O)O
Target: Galactocerebrosidase (Homo sapiens) (UniProt P54803)
Assay: A Novel Cell-Based Assay to Identify Small Molecules for B -Galactocerebrosidase; note: 0% is about no effect; nearly all actives have a fitted effect of over 65% in size
Settings: 145M-Twi-hGALC-G270D cells (Twitcher mouse brain line with human GALC G270D), HMU-beta-Gal fluorescence, 48 h; series mostly up to 57.5 µM; activation: at the top concentration
In short: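 Brain-derived Twitcher mouse 145M-Twi cells stably expressing human GALC-G270D or wild-type GALC, treated live, then residual GALC activity read by fluorescence of HMU-b-Gal substrate (0.1 mM final) in citrate-phosphate buffer pH 5.2 with sodium taurocholate. Signal increase indicates enhancement.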

Chain of UniProt P54803 (P54803 whole entry, looked up): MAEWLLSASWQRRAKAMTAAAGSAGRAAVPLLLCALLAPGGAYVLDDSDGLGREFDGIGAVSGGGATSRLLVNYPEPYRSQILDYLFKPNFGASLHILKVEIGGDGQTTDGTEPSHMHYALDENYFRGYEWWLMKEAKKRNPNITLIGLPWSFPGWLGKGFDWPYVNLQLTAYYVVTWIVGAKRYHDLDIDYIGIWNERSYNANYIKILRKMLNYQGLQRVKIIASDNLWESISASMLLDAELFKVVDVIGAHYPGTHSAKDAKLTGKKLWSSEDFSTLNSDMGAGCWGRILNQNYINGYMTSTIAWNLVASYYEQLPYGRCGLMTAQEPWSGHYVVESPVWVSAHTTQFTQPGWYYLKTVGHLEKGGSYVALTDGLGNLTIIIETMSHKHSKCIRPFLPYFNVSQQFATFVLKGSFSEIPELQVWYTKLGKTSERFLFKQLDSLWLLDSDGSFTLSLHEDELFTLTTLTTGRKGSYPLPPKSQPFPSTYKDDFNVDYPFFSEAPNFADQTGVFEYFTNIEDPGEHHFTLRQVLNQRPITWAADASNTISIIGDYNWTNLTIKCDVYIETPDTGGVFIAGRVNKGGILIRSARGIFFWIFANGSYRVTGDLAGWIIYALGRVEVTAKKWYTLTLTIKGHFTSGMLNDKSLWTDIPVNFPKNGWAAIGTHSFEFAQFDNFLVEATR

activation, inactive:
CCOCCCNC(=O)c1ccc2c(=O)n(CCc3ccc(OC)c(OC)c3)c(=O)[nH]c2c1 -13.8%
Cc1ccc2oc(-c3cc(NC(=O)c4oc5ccccc5c4C)ccc3Cl)nc2c1 24.3%
Cc1ccc2oc(=O)n(Cc3ccccc3Cl)c2c1 19.4%
CCc1ccc(OCC(=O)Nc2cc(-c3nc4cc(C)ccc4o3)ccc2C)cc1 7.53%
CN(Cc1ccc(F)cc1)S(=O)(=O)c1nnc(NC(=O)c2ccccc2)s1 -7.47%
CCCNC(=O)C1CCC(CNS(=O)(=O)c2ccc3c(c2)CC(C)N3C(C)=O)CC1 (stereo not drawn) -7.02%
Cc1ccc(NC(=O)c2oc3ccccc3c2NC(=O)C23CC4CC(CC(C4)C2)C3)cc1 -0.849%
Cc1ccc(C(=O)NCc2ccccc2)cc1NC(=O)c1nsc2ccccc12 -4.91%
CCOc1ccc(Nc2ncnc3scc(-c4ccc(OC)cc4)c23)cc1 -16.2%
CC(C)(C)OC(=O)N1CCC(c2c(C(=O)N3CCN(Cc4ccccc4)CC3)cnn2-c2ccc(Cl)cc2)CC1 -13.5%
Cn1cc(C(=O)NCCc2ccccc2)c(=O)c2cc(S(=O)(=O)N3CCCCC3)ccc21 -12.4%
Cc1cc(-c2ccc(C)c(S(=O)(=O)NCc3cccs3)c2)on1 -13.8%
CCc1ccc(N2C(=O)CN(S(=O)(=O)CC)CC2(C)C(=O)NC2CCCCC2)cc1 (stereo not drawn) 0.64%
CCOC(=O)c1c(C)[nH]c(C)c1S(=O)(=O)N1CCC(C(=O)Nc2ccc(C)c(N(C)C)c2)CC1 -6.74%
Cc1ccc(Nc2c(-c3ccc(C)o3)nc3cccc(C)n23)cc1 -16%
O=c1c2oc3ccccc3c2n(Cc2ccc(Cl)cc2)c(=O)n1Cc1ccccc1 -11.1%
CCC1CCCCN1C(=O)CCS(=O)(=O)c1cc2c(cc1C)NC(=O)CO2 (stereo not drawn) 6.88%
O=C(CNC(=O)c1ccccc1)OCc1cc(=O)n2nc(C3CC3)sc2n1 -6.98%
O=C(Nc1cc(F)ccc1F)c1ccc(CN2CC(=O)N3CCCCC3C2=O)cc1 (stereo not drawn) -12%
COc1ccc(-c2cc(=O)oc3c4c(ccc23)OCN(Cc2ccccc2)C4)cc1 -18.6%
CC1(C)OC(=O)Nc2ccc(Br)cc21 -5.65%
Cc1cc(C)cc(-n2c(SCC(=O)N3CCCCCC3)nc3c([nH]c4ccccc43)c2=O)c1 -14.3%
CCS(=O)(=O)c1ncc(Cl)c(C(=O)NCc2ccccc2)n1 -10.2%
O=C(Nc1cccc(C(F)(F)F)c1)C1CCN(S(=O)(=O)c2cccs2)CC1 -9.74%
CC(=O)Nc1c(C)nn(-c2ccccc2)c1N1CCC(C(=O)NCc2ccc(F)cc2)CC1 -8.35%
C=C(C)Cn1c(SCC(=O)c2ccccc2)nc2sc3c(c2c1=O)CCCC3 -5.38%
COc1cc(Cl)c(C)cc1NC(=O)Cn1c(C)c2cnn(-c3ccccc3)c(=O)c2c1C -11.8%
CC(=O)c1ccc(NC(=O)CSc2nnc(N)s2)cc1 -5.38%
CCn1cc2nc(SCc3cccc(C(F)(F)F)c3)n(Cc3ccc(OC)cc3)c(=O)c2n1 -22.1%
CCOCCn1c(N2CCCN(C)CC2)nc2ccccc21 1.84%
Cc1ccccc1C(=O)N1CCC(C(=O)Nc2ccc(F)cc2F)CC1 24.7%
CCCNC(=O)CN1CCN(c2ccc(NC(=O)c3ccc(OC)cc3)cc2C(=O)O)CC1 1.15%
COc1ccc(CNC(=O)c2ccc(NC(=O)N3CCSc4ncccc43)cc2)cc1 -5.84%
Cc1c2oc3c(C)ccc(C(=O)N[C@@H]4C(=O)N[C@H](C(C)C)C(=O)N5CCC[C@H]5C(=O)N(C)CC(=O)N(C)[C@@H](C(C)C)C(=O)O[C@@H]4C)c3nc-2c(C(=O)N[C@@H]2C(=O)N[C@H](C(C)C)C(=O)N3CCC[C@H]3C(=O)N(C)CC(=O)N(C)[C@@H](C(C)C)C(=O)O[C@@H]2C)c(N)c1=O (I: T[dV]P[Sar][NMeV] / II: T[dV]P[Sar][NMeV]; ester I:1-I:C, II:1-II:C; linker I:N-II:N via Actinocin(9to1)) -12.6%
CCOC(=O)c1cccc(NC(=O)NC(C)c2c(-n3cccc3)sc3c2CCN(C)C3)c1 (stereo not drawn) -17.1%
Cc1cc2c(cc3c(SCC(=O)Nc4ccc(Cl)cc4F)nncn32)o1 -8.02%
Cc1ccc(S(=O)(=O)c2nc(-c3ccccc3F)oc2NCc2ccccc2)cc1 -4.65%
Cc1nc(N2CCOCC2)c2c(C(=O)N3CCN(c4ccccc4)CC3)c(C)oc2n1 -4.34%
COCCCN1C(=O)c2oc3ccccc3c(=O)c2C12C(=O)N(C)c1ccccc12 (stereo not drawn) -26.3%
O=C(COc1ccccc1F)Nc1ccc(OCc2cc(=O)n3ccccc3n2)cc1 6.04%
COc1ccc(CC(=O)N2CCc3cc(OC)c(OC)cc3C2COc2ccc3c(C)cc(=O)oc3c2)cc1OC (stereo not drawn) -18.6%
COC(=O)c1ccc(Cn2c(SCc3ccc(F)cc3)nc3ccncc32)cc1 -13.5%
Cc1ccc(CNC(=O)CSC2=Nc3ccccc3N=C(c3ccc(F)cc3)C2)cc1 -5.37%
O=c1ccc2cc(S(=O)(=O)Nc3ccc(OC(F)(F)F)cc3)ccc2[nH]1 -17.8%
CCOc1ccc(NC(=O)CCc2c(C)nc3c(-c4ccccc4)c(C)nn3c2C)cc1 2.86%
CCOc1ccc(Nc2nn(-c3ccc(OC(F)(F)F)cc3)nc2C(C)=O)cc1 -4.79%
CCc1ccc(OCC(=O)Nc2ncn[nH]2)c(Br)c1 -15.5%
COc1cccc(-c2noc(-c3cc(C(C)C)[nH]n3)n2)c1OC -16.8%
COc1cccc(Cn2c(-c3nonc3NC(C)=O)nc3ccccc32)c1 0.343%
Cc1cc(C)cc(NC(=O)c2c(C)oc3nc(C)nc(N4CCCC4)c23)c1 -15.2%
COCCc1ccc(OCC2CO2)cc1 (stereo not drawn) -5.92%
CC(C)CCn1c(=O)c2cccnc2n(CC(=O)Nc2ccccc2F)c1=O -33.1%
O=C(COc1ccc(F)cc1)NCc1ccc2c(c1)CCN2C(=O)c1ccccc1 -20.3%
CNC(=O)c1ccc2c(c1)N(Cc1ccccc1Cl)C(=O)c1ccccc1S2 -11.6%
Cc1cccc(NC(=O)c2sc3nc(-c4cc5ccc(O)cc5oc4=O)[nH]c(=O)c3c2C)c1 18%
O=C(Cn1c(=O)nc(-c2ccccc2F)c2cc(Cl)ccc21)NCCCc1ccccc1 -10.1%
CC(=O)OC[C@H]1O[C@@H](OC(C)=O)[C@H](OC(C)=O)[C@@H]1OC(C)=O -5.51%
COc1ccccc1CNC(=O)CCNS(=O)(=O)c1ccc2c(c1)oc(=O)n2C -6.96%
COc1ccc2c(c1)c(CC(=O)OCC(=O)O)c(C)n2C(=O)c1ccc(Cl)cc1 -9.41%
CCOc1c(Cl)cc(C(=O)N(Cc2ccc(N(C)C)cc2)Cc2ccco2)cc1Cl -14.7%
COc1ccc(CNC(=O)C2CCCN(c3nnc(C)c4c(C)n(-c5ccc(C)cc5)nc34)C2)cc1 (stereo not drawn) -7.81%
COc1ccc(N2CCN(Cc3nnc(-c4ccc5c(c4)OCO5)o3)CC2)cc1 -8.11%
Cc1ccc(C)c(Cn2c3ccccc3c3cnn(CC(=O)NCCc4ccccc4)c(=O)c32)c1 -16.9%
Cc1ccc2c(c1)c1c3n2CCN(C(=O)c2cccc(C(F)(F)F)c2)C3CCC1 (stereo not drawn) -15%
CCc1cccc(C)c1Nc1c(-c2ccsc2)nc2ncccn12 -13.7%
Cc1ccc(-n2nc(C)c3nc(CCC(=O)Nc4cccc(F)c4)c(=O)n(C)c32)cc1 -18.8%
Cc1cccc(CNC(=O)CCCN2C(=O)CCn3nc(-c4cccn4C)cc32)c1 -8.15%
Clc1ccc(-c2noc(-c3cccnc3NCc3ccco3)n2)cc1 8.74%
COc1ccc(C2CC(=O)c3cc(-c4nc(-c5cccc(Cl)c5)cs4)c(=O)[nH]c3C2)cc1 (stereo not drawn) -9.7%
Cc1ccc2c(=O)cc(C(=O)Nc3sc4c(c3C(=O)NCC3CCCO3)CCCC4)oc2c1 (stereo not drawn) -25.9%
CCOc1ccccc1N(C)C(=O)c1c2c(nc3ccccc13)C(=O)N(C1CCCCC1)C2 -18.2%
O=S(=O)(c1ccc(Cl)cc1Cl)n1ccnc1 -14.2%
CSc1oc(-c2cccs2)nc1S(=O)(=O)c1ccc(Br)cc1 -26.7%
CCC1CN(C(=O)N2CCC(C(=O)N3CCN(c4ccccc4F)CC3)CC2)c2ccccc2O1 (stereo not drawn) -5.92%
CCC(Sc1nc2ncccc2o1)C(=O)Nc1ccc(OC)c(OC)c1 (stereo not drawn) -4.94%
COc1ccc(C(=O)Nc2nc3ccccc3n2CCOc2ccc(Cl)cc2)cc1 -7.62%
CCOc1ccc(N(CC)C(=O)CCc2nc(-c3ccccc3F)no2)cc1 -11%
CNC(=O)c1cnc2sc(N3CCCCCC3)nn2c1=O -23.4%
CCc1ccc(NC(=O)C(Cc2ccccc2)NS(=O)(=O)c2ccc3c(c2)c(=O)n(C)c(=O)n3C)cc1 (stereo not drawn) -14%
CCCOc1ccc(Oc2nc(NCC(C)C)nc(N(C)C)n2)nn1 -10.8%
COc1cccc(NC(=O)Cn2nc(C)c3c(C)n(-c4ccccc4)nc3c2=O)c1 -3.97%
CCC(Sc1nnc(-c2ccc(OC)c(OC)c2)c(-c2ccc(OC)c(OC)c2)n1)C(=O)NC1CCCC1 (stereo not drawn) -18.7%
O=C(NCCc1ccccc1)c1ccc(Cn2c(SCc3ccccc3)nc3cccnc32)cc1 -9.6%
Cc1cccn2c(=O)cc(CSc3nnc(NC(=O)c4ccc(F)cc4)s3)nc12 -10.4%
Cc1cccc(C)c1NC(=O)c1sc(-n2nc(C)c(Cc3ccc4c(c3)OCO4)c2C)nc1C 0.361%
CCC(C(=O)Nc1ccc(C)c(Cl)c1)n1c(=O)c(-c2ccccc2NC(C)=O)nc2ccccc21 (stereo not drawn) -12.6%
COc1ccc(Cl)cc1NC(=O)Cn1c(=O)c2ccccc2n2nncc12 -15.3%
O=C1C(O)=C(O)C(=O)C(O)=C1O -1.23%
Clc1ccc(NCc2nc3ccccc3n2CCOc2ccccc2)cc1 -10.9%
Cc1nc(-n2nc(C)c(CCC(C)C)c2C)sc1C(=O)Nc1cccc(Cl)c1 -1.02%
CCN(C(=O)CSc1nc2ccccc2nc1Cc1ccc(F)cc1)c1cccc(C)c1 -7.63%
Cc1nccn1CC1CCc2c(c3ccccc3n2C)C1=O (stereo not drawn) 6.72%
Cc1ccc(NC(=O)Cn2nc3c(cc2=O)CCCC3)cc1Cl 1.15%

Reference: PubChem BioAssay AID1159614 (National Center for Advancing Translational Sciences (NCATS), 2016)
